Assay results as given in PubChem BioAssay AID1508623 (National Center for Advancing Translational Sciences (NCATS), 2021).
Among all 48,000 compounds or so, about 450 (0.94%) were called active. About 19% were inconclusive and are not listed. Calls follow the shape of the dose curve; as a rule, active = well fitted inhibition curve with a large enough effect; inconclusive = small, poorly fitted or top-dose-only effect; inactive = no such curve, though single readings can be large or run the other way. The list shows a part of the results.

Test: Primary qHTS for Identification of Small Molecule Inhibitors of Huntingtin Promoter Activity; also: nearly all actives have a fitted effect of over 50% in size
Conditions: HEK293 HTT promoter firefly luciferase reporter (activity 0% = vehicle and -100% = no light), 24 h; series mostly up to 57.5 µM; activity change, negative = inhibition: at the top concentration
Summary of the method: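 Luminescence was read after Dual-Glo reagent and a 10 min room-temperature incubation. Values were normalized to vehicle (0% activity) and zero RLU (-100% activity). Reporter HEK293 cells had been exposed to compounds (up to 57.5 uM final) for 24 h.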

Row | Compound | activity change, negative = inhibition
1 | Cc1cccc2nc(Cn3c(=O)n(-c4ccccc4)c(=O)c4c5c(sc43)CCC5)cc(=O)n12 | inactive: 9.86%
2 | CCOc1ccccc1NC(=O)CSc1nnc(CC)c(CC)n1 | inactive: -21.6%
3 | CCCCC(CC)CNC(=O)c1ccc(Cn2c(=O)[nH]c3cc(OC)c(OC)cc3c2=O)cc1 (stereo not given) | inactive: -1.17%
4 | CCN1c2ccccc2-c2nc(SCC(=O)Nc3cc(OC)cc(OC)c3)ncc2S1(=O)=O | inactive: -15.8%
5 | CCCN(C(=O)c1c(C)oc2ncn(CC(C)C)c(=O)c12)c1ccccc1C | inactive: -1.41%
6 | CCCOc1ccc(C(=O)Nc2cc(-c3nc4ccccc4[nH]3)ccc2C)cc1 | inactive: -18.8%
7 | COc1cccc(CN2CCCN(Cc3ccc(F)cc3)S2(=O)=O)c1 | inactive: -12.6%
8 | Cc1ccccc1OCC(=O)Nc1nnc(SCc2cc(=O)n3cccc(C)c3n2)s1 | inactive: 1.61%
9 | COc1cccc(CNC(=O)c2cc3cc(C)ccc3n2C)c1 | inactive: -19.1%
10 | Cc1c(NC(=O)C(C)(C)C)cccc1-c1nc2ccccc2s1 | inactive: 23.3%
11 | Cc1ccc(-n2nc(C(=O)N3CCN(c4cc(C)ccc4C)CC3)c3c4ccccc4n(C)c3c2=O)cc1 | inactive: -7.53%
12 | CCOc1ccccc1NC(=O)Cn1c(=O)n(-c2ccc(Cl)cc2)c(=O)c2oc3ccccc3c21 | inactive: -8.52%
13 | CCN(CC)c1ccc(NC(=O)Cn2cc3c(n2)CCCC3)c(C)c1 | inactive: -16%
14 | Cn1c(=O)n(C)c2cc(N3CCCCC3)c(NC(=O)Nc3ccc(Br)cc3)cc21 | inactive: -19.8%
15 | CCc1ccc(NC(=O)CSc2nc3c([nH]c4ccccc43)c(=O)n2C)cc1 | inactive: -6.88%
16 | Cc1ccc(-n2c(=O)c3ccc(C(=O)NCc4ccccc4Cl)cc3n(Cc3cccc(F)c3)c2=O)cc1 | inactive: -16.4%
17 | COc1ccc(N2CCN(C(CNC(=O)c3c(F)cccc3F)c3ccc4c(c3)OCO4)CC2)cc1 (stereo not given) | inactive: -19.5%
18 | CCOC(=O)c1cc2c(=O)n3ccccc3nc2n(CC2CCCO2)c1=NC(=O)c1ccccc1OCC (stereo not given) | inactive: -11.4%
19 | CCOc1ccc(-n2cc(-c3ccccc3)c3c(NCc4ccccc4)ncnc32)cc1 | inactive: -29.7%
20 | COc1ccc(CNC(=O)C2CCN(S(=O)(=O)N3CCC(C)CC3)CC2)c(OC)c1 | inactive: -23.9%
21 | Cc1ccc(NS(=O)(=O)c2cn(C)c(C)n2)c(Br)c1 | inactive: -2.04%
22 | COc1cc(CN(C(=O)c2ccc(C)cc2)C2CCS(=O)(=O)C2)cc(OC)c1OC (stereo not given) | inactive: -9.39%
23 | COc1cccc(NC(=O)C2CC(=O)N(c3ccc(Br)cc3)C2)c1 (stereo not given) | inactive: -9.15%
24 | COc1ccc(NC(=O)CCn2cnnn2)cc1 | inactive: -3.37%

Row | Compound | activity change, negative = inhibition
25 | N#C/C(=C\c1cccc(F)c1)c1nc(-c2cc3ccccc3oc2=O)cs1 | inactive: 5.62%
26 | Cc1ccc2c(c1)c1c(c(=O)n(Cc3ccccc3)c(=O)n1Cc1cccc(F)c1)n2C | inactive: -8.3%
27 | Cc1ccc(S(=O)(=O)c2cn(CC(=O)Nc3ccc4c(c3)OCO4)c3ccc(C)cc3c2=O)cc1 | inactive: -9.84%
28 | COc1ccc(-c2nc3ccccc3o2)cc1NC(=O)c1cc([N+](=O)[O-])ccc1N1CCOCC1 | inactive: 22.5%
29 | CCC1CN(CC(=O)NCc2cccc(Br)c2)c2ccccc2S1 (stereo not given) | inactive: -29.1%
30 | Cc1c(Nc2ncccc2C(=O)O)cccc1C(F)(F)F | inactive: 9.2%
31 | CCc1nnc(SCC(=O)Nc2ccc(OC)c(OC)c2)c2cc3occc3n12 | inactive: 8.73%
32 | CCc1ccc(N2CC(C)Cn3c2nc2c3c(=O)n(CC(=O)O)c(=O)n2C)cc1 (stereo not given) | inactive: 0.195%
33 | COC(=O)Cc1c(C)nc2nc(NCc3ccc(Br)cc3)[nH]n2c1=O | inactive: -19.9%
34 | O=C(Nc1noc2ccccc12)c1ccc(F)cc1 | inactive: 60%
35 | CCOC(=O)c1ccc(NC(=O)C2(S(=O)(=O)c3ccc(Cl)cc3)CC2)cc1 | inactive: -1.37%
36 | COc1ccc(CNC(=O)c2cc(=O)c3cc(C)ccc3o2)cc1 | inactive: -17.9% [at 11.5 µM]
37 | C=Cc1ccc(COc2ccc3oc(-c4ccccc4)c(C(=O)OCC)c3c2)cc1 | inactive: -2.52%
38 | Cc1cccc(C)c1NS(=O)(=O)c1ccc(NS(=O)(=O)c2ccc3c(c2)OCCO3)cc1 | inactive: -23%
39 | Cc1ccccc1NC(=O)CCC(=O)N1CC(C)Sc2ccccc21 (stereo not given) | inactive: -22.8%
40 | COc1cccc(CNC(=O)CSC2=Nc3ccccc3C3=NC(C(C)C)C(=O)N23)c1 (stereo not given) | inactive: -17%
41 | CCOC(=O)COc1ccc([N+](=O)[O-])cc1-c1ccnc2cc(-c3ccc(C)cc3)nn12 | inactive: -7.61%
42 | COc1ccc(C(=O)N(c2ccc(OC)cc2)S(=O)(=O)c2ccc3c(c2)n(C)c(=O)n3C)cc1 | inactive: 3.48%
43 | COc1ccccc1C(=O)Nc1cccc(C(=O)OCc2cc(=O)n3nc(C)sc3n2)c1 | inactive: -5.93%
44 | O=C(c1cc2ccc3cccnc3c2[nH]1)N1CCN(c2ccc(Cl)cc2)CC1 | inactive: 6.56%
45 | Cc1c(Cl)cccc1NC(=O)Cn1nnc2sc3c(c2c1=O)CCCC3 | inactive: -10.6%
46 | O=C(Nc1cccc(Cl)c1Cl)c1cc(S(=O)(=O)NCCc2ccccc2)ccc1F | inactive: -25.3%
47 | NC(=O)CSc1ncc2c(n1)-c1ccccc1N(Cc1ccc(Cl)cc1)S2(=O)=O | inactive: -11.4%
48 | Cc1nn(CC(=O)Nc2cc(F)ccc2F)c(=O)c2cccn12 | inactive: 1.34%

Row | Compound | activity change, negative = inhibition
49 | CC(C)c1noc(-c2ccccc2OCC(=O)Nc2ccccc2[N+](=O)[O-])n1 | inactive: -18.9%
50 | Cc1cc(Nc2ccc(Cl)cc2C)nc(-n2nc(C)cc2C)n1 | inactive: -20.6%
51 | O=C(NCc1ccc2c(c1)CCN2C(=O)c1ccc(F)cc1)c1ccco1 | inactive: -17.9%
52 | Cc1c(CNC2CCCCC2)c(C(=O)O)c(C)n1Cc1ccc(F)cc1 | inactive: -3.77%
53 | CCC(=O)Nc1ccc2nc3c(=O)n(C)c(=O)n(C)c3nc2c1 | inactive: 8.37%
54 | CCOC(=O)[C@H]1O[C@H]1C(=O)N[C@@H](CC(C)C)C(=O)NCCC(C)C | inactive: -9.62%
55 | CCN(C(=O)c1cc2c(=O)n3cccc(C)c3nc2s1)c1ccc(C)c(C)c1 | inactive: -4.31%
56 | COc1cccc(CNC(=O)C2(c3cccs3)CCOCC2)c1 | inactive: -2.71%
57 | CC(C)c1nc2n(n1)C1(CCCCC1)[C@@H]1CCCC[C@@H]1N2 | inactive: -1.21%
58 | COc1ccc(-c2nc3c4ccccc4n(CC(=O)N4CCN(c5ccc(F)cc5)CC4)c(=O)n3n2)cc1 | inactive: -2.12%
59 | Cc1cccc(Cn2c(C)c(CNC3CCCCCC3)c(C(=O)O)c2C)c1 | inactive: -18.2%
60 | COc1c(Cl)cc(C(=O)N(Cc2ccc(C)o2)C2CCS(=O)(=O)C2)cc1Cl (stereo not given) | inactive: -29.8%
61 | O=C(Cn1c(=O)c2ccccc2n(CC(=O)Nc2ccc(F)cc2)c1=O)NCCc1ccccc1 | inactive: -20.3%
62 | CCOC(=O)N1CCc2c(sc3c2C(=O)NC(c2cc(OC)c(O)c(OC)c2)N3)C1 (stereo not given) | inactive: -6.06%
63 | COc1cccc(C(=O)c2cn(CC(=O)NCCc3ccccc3)c3nc(C)ccc3c2=O)c1 | inactive: -3.26%
64 | CCCN(CCC)CCCNC(=O)Cn1cc2c(n1)-c1c(oc(C(=O)N3CCCC3)c1C)CC2 | inactive: -8.88%
65 | COc1cccc(NC(=O)Cn2c(=O)n(CCc3ccccc3)c(=O)c3c4c(sc32)CN(C(C)=O)CC4)c1 | inactive: -21.7%
66 | Cc1ccc(C(=O)c2oc3ccccc3c2NC(=O)COc2ccccc2Cl)cc1 | inactive: -8.51%
67 | CCOC(=O)c1cc2c(=O)n3ccccc3nc2n(CC2CCCO2)c1=NC(=O)c1ccc(OC)cc1OC (stereo not given) | inactive: -12.5%
68 | CCOc1ccc(NC(=O)NCc2ccc3c(c2)CCN3C(C)=O)cc1 | inactive: -1.16%
69 | Cc1cc(C)n(-c2nc3ccccc3nc2N2CCN(c3cccc(C)c3C)CC2)n1 | inactive: 7.52%
70 | COc1ccc(Cn2c(SCc3ccc(C(=O)NCCc4ccccc4)cc3)nc3cccnc32)cc1 | inactive: -5.23%
71 | Cn1c(=O)n(C/C=C/c2ccccc2)c(=O)c2c1nc1n2CCN1c1ccc(Cl)cc1 | inactive: 3.76%
72 | CCN(CC)c1nn2c(=O)c(C(=O)NCc3cccc(C)c3)cnc2s1 | inactive: -3.6%

Row | Compound | activity change, negative = inhibition
73 | CCn1cc(S(=O)(=O)c2ccc(C)cc2)c(=O)c2cc(F)c(N3CCCCCC3)cc21 | inactive: 9.72%
74 | CCOC(=O)c1[nH]c(C)c(CCC(=O)NCc2ccccc2C)c1C | inactive: -13.9%
75 | Cc1ccc(NC(=O)CSc2ncnc3c2sc2ccccc23)cc1C | inactive: -12.3%
76 | Cc1nn(C(=O)c2cccc(F)c2)c(C)c1S(=O)(=O)N1CCCCCC1 | inactive: -11.4%
77 | CCC(C)NC(=O)Cn1c(=O)n(Cc2ccc(C(=O)NCc3ccccc3OC)cc2)c(=O)c2ccccc21 (stereo not given) | inactive: -16.4%
78 | Cc1ccc(C)c(NC(=O)CSc2nc(=O)n(Cc3ccccn3)c3c2CCC3)c1 | inactive: -4.07%
79 | Cc1cccc(N2CCN(S(=O)(=O)c3ccc(F)c(C(=O)Nc4ccc(C(C)C)cc4)c3)CC2)c1C | inactive: -26.4%
80 | COc1ccc(OC)c(Nc2ncnc3c2cnn3-c2ccc(C)cc2)c1 | inactive: -20.5%
81 | Cc1cc(C)cc(NS(=O)(=O)c2ccc3[nH]cc(C(=O)N4CCCCCC4)c(=O)c3c2)c1 | inactive: -1.38%
82 | CCOc1ccc(CC(=O)NC2CC(=O)N(c3ccc(C)c(C)c3)C2)cc1 (stereo not given) | inactive: -22.7%
83 | C#CC(C)(CC)NC(=O)c1cc2c(n(-c3ccc(Cl)cc3)c1=O)CC(C)(C)CC2=O (stereo not given) | inactive: -6.94%
84 | COCCn1c(C)cc(O)c(C(c2ccc(C)cc2)N2CCCCC2)c1=O (stereo not given) | inactive: -12%
85 | CC(=O)N1CCc2cc(Br)cc(S(=O)(=O)N3CCN(c4cc(C)ccc4C)CC3)c21 | inactive: 0.243%
86 | Cc1ccccc1OCC(=O)N(Cc1ccc(N(C)C)cc1)CC1CCCO1 (stereo not given) | inactive: -25.5%
87 | OCc1nc2ccccc2n1Cc1c(F)cccc1Cl | inactive: 0%
88 | Cn1cc(-c2cc3n(n2)CCC(=O)N3CC(=O)O)c2ccccc21 | inactive: -14.5%
89 | Cc1cccc(CNC(=O)CCCN2C(=O)CCn3nc(-c4cn(C)c5ccccc45)cc32)c1 | inactive: 0%
90 | CCN(CC)c1ccc(NC(=O)c2cc(S(=O)(=O)N3CCc4ccccc43)cn2C)c(C)c1 | inactive: -0.905%
91 | CCN1CCN(c2c(S(=O)(=O)c3ccccc3)cnc3ccc(Cl)cc23)CC1 | inactive: -6.53%
92 | Cc1ccc(OCC(=O)OCc2cc(=O)n3nc(-c4cccs4)sc3n2)cc1 | inactive: 2.5%
93 | COc1cccc(NC(=O)C2CCCN(c3nnc(-n4c(C)ccc4C)s3)C2)c1 (stereo not given) | inactive: -7.47%
94 | COCCCn1c(=N)c(S(=O)(=O)c2ccccc2)cc2c(=O)n3cc(C)ccc3nc21 | inactive: -2.66%
95 | COc1ccccc1CNC(=O)CCCn1nc(C)c2sc3ccccc3c2c1=O | inactive: 8.36%
